The full ranking holds about 33,000 sequences; the median of “E-score (-0.5 to 0.5)” is about -0.041, and the highest 2% start at about 0.37. This is one part of the list.
target: T1, Ecm22 (UniProt Q05958); assay: PBM E-score (8-mer binding enrichment) (E-score (-0.5 to 0.5)); higher = stronger / more preferred TF binding; most listed sequences are background and not binding sites; details: protein concentration: 200 nM; construct: GST-full length
T1 sequence: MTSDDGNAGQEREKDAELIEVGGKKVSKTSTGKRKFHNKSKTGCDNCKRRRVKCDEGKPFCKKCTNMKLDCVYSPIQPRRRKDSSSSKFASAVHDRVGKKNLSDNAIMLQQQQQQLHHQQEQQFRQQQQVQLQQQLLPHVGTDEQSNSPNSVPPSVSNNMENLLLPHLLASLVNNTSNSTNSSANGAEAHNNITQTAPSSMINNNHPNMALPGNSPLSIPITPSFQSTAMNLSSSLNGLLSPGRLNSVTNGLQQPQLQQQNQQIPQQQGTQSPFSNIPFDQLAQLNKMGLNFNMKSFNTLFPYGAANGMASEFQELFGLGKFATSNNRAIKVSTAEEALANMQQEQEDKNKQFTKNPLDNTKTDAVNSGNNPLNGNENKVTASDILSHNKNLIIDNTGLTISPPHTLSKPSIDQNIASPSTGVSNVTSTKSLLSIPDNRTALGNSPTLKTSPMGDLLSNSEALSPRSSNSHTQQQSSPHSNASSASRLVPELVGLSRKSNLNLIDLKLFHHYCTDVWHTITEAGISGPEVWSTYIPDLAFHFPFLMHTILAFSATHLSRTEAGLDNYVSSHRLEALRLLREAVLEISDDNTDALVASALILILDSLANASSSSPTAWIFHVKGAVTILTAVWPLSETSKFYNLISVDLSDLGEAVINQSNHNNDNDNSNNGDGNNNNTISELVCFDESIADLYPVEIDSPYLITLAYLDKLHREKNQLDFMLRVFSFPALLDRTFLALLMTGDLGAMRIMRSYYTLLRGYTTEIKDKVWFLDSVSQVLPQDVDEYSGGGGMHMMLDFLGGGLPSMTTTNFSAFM
Summary of the method: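 PURExpress in vitro transcription/translation supplied GST-tagged yeast transcription factors, either full-length or DNA-binding domain. Applied at about 100-200 nM to universal all-10-mer Agilent arrays double-stranded by primer extension, the bound protein was detected with fluorescent anti-GST. E-scores, modified Wilcoxon-Mann-Whitney statistics, were given by the Universal PBM Analysis Suite to ungapped eight-base words pooled with their reverse complements after masliner normalisation.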

Sequence	PBM E-score
AACGCATT	0.0189
AGTCATCA	-0.149
ATCGACTC	0.0508
CGTCGCAG	0.126
AGCCCAAC	-0.147
GGACATTA	-0.088
GGATGGTA	-0.0324
ACGTAACC	0.0905
CCCGGTGA	-0.206
CAATGATG	-0.141
TGACCGAA	0.203
ATGGGTAG	-0.0273
CATAAGAC	0.00296
AAACCAAA	0.0602
ACTGTAAA	-0.0485
GAACTTGC	-0.0845
CTTCGATA	0.121
GAGGATTA	-0.0868
GCCGACAC	-0.17
ACCCGGAG	0.114
GCAGCACA	-0.197
GGCAGTAA	-0.0106
CGGGGGTA	-0.11
AGTGTGCC	-0.185
CCCGAAAA	0.0691

Sequence	PBM E-score
AATGCTGT	-0.155
CACGCTTA	-0.00771
AGGCTAAT	-0.00957
CATGTACC	-0.118
GCCTGCCA	-0.285
CCAAAACC	0.021
AGCCAGCC	-0.0617
GTCAACAA	-0.0801
AAATAGTA	0.0746
ACTGTCTG	-0.221
GGTCACCA	-0.156
CCGTACTC	0.224
CTATCGAG	0.014
ACCAACAT	0.0381
CTGTGTAC	0.236
AGTTATCG	0.218
AAGCTAAT	0.0924
CGTGGGGC	-0.213
GCCGCCTA	-0.348
CAGGTGAA	-0.0473
CAGATCCA	-0.2
CCAGCGAA	-0.112
AAAGGGCC	-0.338
CTGGGAAG	-0.0875
ATTGGCGC	-0.0775

Sequence	PBM E-score
CAAATGTC	-0.088
TCATTTCA	-0.0478
CTGAGAAC	0.093
GGGGTATA	-0.185
GGACAAAA	-0.0932
CGGCATTC	-0.0261
AGCCCACA	-0.193
ACATGGAC	-0.199
ATGCACCC	-0.058
CACTCGAC	-0.0826
TAATCTCA	0.05
GCTTGCAA	-0.091
ACGGGCTA	0.0937
CTTCTGAA	-0.201
ATAGGTAG	-0.151
AAGTTAAA	-0.0767
ACATGGCG	-0.0545
CCGCGACG	0.0789
AAAAAGAG	-0.158
CGGGACGA	0.00175
ACTTAAGC	0.0561
GGAATGGA	-0.258
CCAGGGCC	-0.354
AAGTCCAG	-0.111
GCGAATAA	0.153

Sequence	PBM E-score
AGACCGAG	0.155
ACGATAAG	0.193
AATTCTAC	0.0698
TAGAGCGA	0.211
TACGAAAA	0.423
ACTAAAAC	-0.0475
AGCTGTCC	-0.207
AGAGTTTG	-0.119
TACGCCTA	-0.0425
GGGTGTCA	-0.183
AATAATGC	0.202
CGGCAACA	0.00962
CCCCGACC	-0.0419
AAACCTGC	-0.0823
CGTCACCA	-0.137
GTTCGCCA	0.067
GCCCGCAA	-0.0102
AAAGGACT	-0.209
ACGTTTCG	0.247
ACAGATAT	0.0648
AAACTAAG	-0.0282
CATCAAAA	0.0123
GAATAGGA	0.0429
ATCATCAT	0.0455
CGGAGCAA	-0.163

Sequence	PBM E-score
CTCTTACA	-0.19
CGGATCTA	0.0938
ACTCCCGC	-0.0572
ACACGCCA	-0.00397
ATGTAAAC	0.199
CACCCTCC	-0.114
CAAAACAC	-0.184
TAACTACA	0.00782
CTGCGCAA	0.0516
CGATCCGA	0.294
ACGTAGAG	-0.0231
CTGTATGA	-0.0474
AACGAGCT	0.445
AAACCTTC	-0.172
CCCGACTC	0.119
ATGAACTG	-0.0086
AGTGGAAG	-0.206
CCTCAGCG	-0.0433
GATTGTTA	0.0402
CCAGTAGC	-0.0364
ACTCCCAC	-0.108
GATGGCCA	-0.163
TGATACAA	-0.102
GTGCGTTA	0.103
ACCATTCT	-0.262

Sequence	PBM E-score
CACCCTGA	-0.319
GACAGGAA	-0.00773
AGTATCCA	0.031
ATCAAGAA	-0.0539
AAGATGAA	-0.1
ACCCCTAT	-0.0517
CGACCTGC	-0.0223
GTCAACGA	0.2
CAGTGTGA	-0.0937
CGATGTGC	0.107
TAACGCCA	0.0183
TGATTACA	-0.0514
AGCTACTG	-0.0991
ATGCCTAG	-0.204
CAACCTCC	-0.219
ACTACCAG	-0.0954
AGTCATGG	-0.179
CGTGTGGC	-0.0896
CTCACACC	-0.171
AATAAAGT	-0.101
AGAGAATG	0.0385
TCTATCAA	-0.273
GCTATGCC	-0.186
CCCTGCTA	-0.179
ATCGCCAA	-0.229

Sequence	PBM E-score
GGGTCGCA	0.183
ACCATGCG	0.035
CATTGGTA	-0.116
ATGTCCTC	4e-05
CGCCTATC	-0.00033
GCTCTTGA	-0.244
ACGACTAG	0.194
CGCCCGCC	0.00795
CACGACGC	0.119
CATGGCGC	-0.137
ACGGGGCG	0.214
ATCCATTA	-0.00138
AGATTTGC	-0.0658
CGCATCCG	0.0561
ATACATCG	0.0771
AACGCATG	0.151
AGTGCAGA	-0.0276
AACAAGTT	-0.0507
AGGTCGTA	0.458
ACTCCTCA	-0.116
AAAACCGC	-0.0889
AGTACAGC	-0.113
ATACAATC	0.176
AAACTCCA	-0.0923
TAAGTTGA	-0.105

Sequence	PBM E-score
ACAGTCAC	-0.126
GGCATACA	-0.082
CCCAGAGC	-0.286
CAGGCGTA	0.0954
ACTTCCCT	-0.15
GAGTGCCC	-0.206
GGTTCACA	-0.217
ATCCGCGA	-0.00107
AAGGTATA	-0.0141
TAAGCGCA	-0.0945
ACCAATGG	-0.288
CCCCAGAA	-0.194
CACCCACC	-0.214
CCTCGAAA	0.0231
AAGGAGTA	-0.178
CGAACTTA	0.25
ATCGTCTA	0.0467
CGACGTGC	0.154
AATTGTCG	0.134
TATGGCCA	-0.247
CTTAACTC	0.03
AGTCGACA	0.114
GGCGATGA	-0.00497
AGAGCTCT	-0.41
AGCCCGAG	-0.00628

Sequence	PBM E-score
CGGCCAGC	-0.0653
CCAAGCCG	-0.193
ACCAGCAC	-0.174
CTCAGGTC	-0.0857
CACTTGCC	-0.223
GCCACCAC	-0.209
CTCAACCC	-0.14
CATGACCC	-0.258
ATTTATGG	0.0199
CTGCCTAA	-0.118
GGAACAGA	-0.378
TCTTTGCA	0.0516
AAGCGTGC	-0.0355
CATGTAGC	-0.0208
CCGCAGAA	-0.077
GCATACGA	0.446
ATGACCCG	-0.00499
CGTTTTCC	0.159
CGCGCACG	0.0983
